B1: CPEB3 Ribozyme (parent)
chain: UAACAGGGGGCCACAGCAGAAGCGUUCACGUCGCAGCCCCUGUCAGAUUCUGGUGAAUCUGCGAAUUCUGCUGUAUAUCUC

The source gives no read counts; variants with many changes may rest on few reads.

In the series the parent is B1. Briefly: self-cleavage, relative activity (ratio to wild type); higher = more cleavage; in vitro, sequencing. The essentials:
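Relative activity was defined as the cleaved/total read fraction for a variant divided by the same fraction for the unmutated ribozyme. CPEB3 self-cleaving ribozyme libraries were made by rounds of error-prone PCR, barcoded, and transcribed in vitro with T7 RNA polymerase for 5 hours at 37°C, and cleavage ran through transcription plus a 15 min DNase I step before EDTA. Illumina sequencing of template-switched reverse transcripts gave the reads, and DNA sequencing mapped the barcodes. Averages come from three batches, using variants with at least 5 reads.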
For G8A C11U C17U U41C G61A A64U, the self-cleavage was 0.05.
As for G8A C12A U60A A64U U80C, the figure is 0.05; as for G8A U74A U76A, 0.14.
With G8C A18U U25G A28G A75G the figure was 0.05; with G8C C32U U43C U58A, 0.07.
With G8A A47G G55U the figure was 0.05.
As for G8A G33U U66C U69C A77U, the self-cleavage worked out at 0.06.
As for G8A U67A U80A, the figure is 0.2.
With G8C U43A A64C A75U, the self-cleavage worked out at 0.04.
With G8C A13U A21G C23U U25C G36C the figure was 0.1.
Take G8U A13G U58C: the self-cleavage stood at 0.05.
For the variant G8A A21G U41C A45G U60A, the self-cleavage was 0.07.
As for G8A U41C U67C U72A, the figure is 0.09.
For the variant G8A A28G A57G, the self-cleavage turned out to be 0.1.
On to G8U A18C C23G G33A C38U A56U A64G, for which the self-cleavage came out at 0.03.
For the variant G8C G24A C32U A57U U69A C71U U74A, the self-cleavage turned out to be 0.03.
With G8A U25C A35G U41A C44U U49A U60A the figure was 0.23; with G8A A57G U66G U78C, 0.16; with G8A C40A A65G U72A, 0.13.
Regarding G8A U25C U41A U66C U80C, the self-cleavage is 0.08.
As for G8C G30C G46U G52U, the figure is 0.12.
Regarding G8U A13U U31C U51C C62G U74C, the self-cleavage came to 0.04.
G8A U25C U41C U43C A47G U58C: the self-cleavage came out at 0.01.
With G8A A28G U60A the figure was 0.07; with G8A U54C C59A A64U G73C U80A, 0.04; with G8A U48C A64U U67A U69C A77U, 0.03.
As for G8A G33C A57G A75G, the figure is 0.14.
As for G8A A35U U41A U54A, the figure is 0.09.
Turning to G8U A13U G33U A57U U60A U78A, the self-cleavage was determined as 0.05.
As for G8C A18G G52U U72A, the figure is 0.05; as for G8A G9U U49C, 0.06; as for G8U A15U U51C U72C, 0.2.
As for G8A G33U U41A C59U, the figure is 0.06.
As for G8A U26C U58C A64U, the figure is 0.06.
For G8C A45U U72A, the self-cleavage is 0.28.
For the variant G8C G9A C32U, the self-cleavage is 0.24.
As for G8U A15G U25C U31A U51C, the figure is 0.04; as for G8A G33A A64G, 0.04.
With G8C A20U U26C the figure was 0.19; with G8A U31C A35U A56G, 0.05.
As for G8A U25C U41A U54C A64U, the figure is 0.06; as for G8A A28G U48C A57C, 0.04; as for G8C A64G U74C, 0.14.
Consider G8A A28G A47G U69C, for which the self-cleavage turned out to be 0.11.
With G8A A47G G52A U54G U67C C79A the figure was 0.09; with G8A A28G G33U U60A U78A, 0.05; with G8U A13G A45C A57G, 0.06.
As for G8C A13G U51A, the figure is 0.43; as for G8U A13U U25C U43A A56G G61C U72C, 0.11; as for G8A G19A U41G U49C U54C U58G, 0.07.
In the case of G8U A15U U25C, the self-cleavage is 0.16.
As for G8A U74C A75G, the figure is 0.32.
With G8A G46A U48C U49C the figure was 0.18; with G8A C11G U76C U78C, 0.07.
With G8A U54A U67C A75G U80G, the self-cleavage was found to be 0.03.
With G8A A45C A47G G52A U54G U67C C79A the figure was 0.15.
As for G8A U41A A77U U80C, the figure is 0.08.
As for G8C C37A U72C, the figure is 0.5; as for G8A A35U U43C A45C, 0.14.
Turning to G8A U25C U26C U54C, the self-cleavage was found to be 0.27.
As for G8A U58C A64G, the figure is 0.29; as for G8C C34U A56G U74A, 0.2; as for G8C U41C A47G G73A, 0.1.
With G8A A45G A56G U67C the figure was 0.2; with G8A U31C U67G U69A, 0.22.
As for G8A A35U A45G U51A U58C C71G, the figure is 0.08.
Turning to G8C C11U A45U A47U U58C U60A U80C, the self-cleavage worked out at 0.04.
G8U A15U U43A A45G U48C A56G: the self-cleavage came out at 0.03.
As for G8A U48A U49C, the figure is 0.03; as for G8A G10U A28U U43C U51G U60C A65C, 0.03; as for G8A C11U U41C G53C A57U A77C, 0.05.
With G8A A21G U49C the figure was 0.07.
As for G8C U48C G73U, the figure is 0.1.
With G8A U25C U72C, the self-cleavage amounted to 0.06.
As for G8A A28G U43C A45G U80G, the figure is 0.05; as for G8A C11U A20G C40A A47G U60C U67C, 0.04; as for G8A U26C A47G, 0.22.
With G8A U26C A47U, the self-cleavage worked out at 0.04.
As for G8A A45G A75U U80C, the figure is 0.07.
With G8U A13U A45U U60A the figure was 0.08; with G8A A35U U49C U58C U72C, 0.07; with G8A U31C U41A U58C U69A U78C, 0.09.
As for G8A U60A U72A, the figure is 0.06; as for G8A A28G U72A U76C U80C, 0.05.
Take G8C A13U U31C C44A: the self-cleavage came out at 0.17.
With G8A C39G A56C A64G U72G U80C the figure was 0.05.
For G8C U69A U76C, the self-cleavage was determined as 0.24.
As for G8A C14A A20U U41A, the figure is 0.08.
As for G8U A13U U69A, the figure is 0.24.
On to G8A A28U U41A, for which the self-cleavage came to 0.06.
With G8U A18G A21U U54C U69C the figure was 0.1; with G8A U25G G61A U76C U80A, 0.04; with G8C C17G C27U A65G U72C, 0.12.
As for G8A A64G U76A, the figure is 0.21.
As for G8A A28U G30A U54A A56G, the figure is 0.07; as for G8A U25C U49C U76C, 0.06; as for G8A U49A A56G U67C U72C U78C U80C, 0.06.
As for G8C U26C C39U A77G, the self-cleavage is 0.38.
With G8C A21G U31G U43A A57G U69C U80C the figure was 0; with G8A U25C A35U U48A U54C U60A, 0.11; with G8C C39A U41A G42C, 0.41.
With G8C A20C G36A U54A U67C U74C the figure was 0.09; with G8C U26C U54C, 0.05; with G8A U25C U43A U69C, 0.05.
As for G8C U60C U80C, the figure is 0.38; as for G8A U25C U31C A35U U67G U80A, 0.05; as for G8U A13U A45G U72C, 0.07.
As for G8C G33A C38A A47G U51C, the self-cleavage turned out to be 0.03.
With G8A U31C C62A A64G the figure was 0.32; with G8A U26C U51A, 0.29; with G8A U26C U51G, 0.07.
Take G8U A15G U25C U31A U41A U51A U72G: the self-cleavage was 0.03.
For the variant G8A U31C U41C G42C U51C U60A, the self-cleavage amounted to 0.
With G8C U48C U74G the figure was 0.26; with G8A C23A U26C U54C C71U, 0.06.
As for G8C U26A U31C U48C U51C U80C, the figure is 0.14; as for G8C U26C G42A U80C C81U, 0.06; as for G8A U49C C59A U76C, 0.15.
As for G8C A28G U31C, the figure is 0.06.
With G8C U25C A35U U51C U60C U67A, the self-cleavage is 0.06.
As for G8U A15G U25C U31A, the self-cleavage was 0.22.
On to G8A C39A A65G, for which the self-cleavage came out at 0.18.
With G8A C12A A15G C17G A57G U67C the figure was 0.05; with G8A G10C C59A A75G U80G, 0.07; with G8C G52U A56U U67G, 0.07.
As for G8A C39A U48A U49A U72A, the figure is 0.18; as for G8C A28G A45G, 0.06.
With G8U A13U A35G U49A G73U the figure was 0.09; with G8A A28G U78A U80C, 0.05.
G8A U25C A57U U72C: the self-cleavage was found to be 0.07.
With G8A U31A U78C the figure was 0.06; with G8C A56G A64G U66C C71A, 0.1.
As for G8A U58C U60C U72C, the figure is 0.13.
With G8A A21G U69C U78C the figure was 0.06; with G8A U66C U80C, 0.19.
Regarding G8A G9U U25C U58C U72C, the self-cleavage is 0.05.
As for G8A U76C U80A, the figure is 0.08.
With G8A U49A C50A A64G U72C A77U the figure was 0.02.
As for G8C A13G G63A A64C, the figure is 0.2; as for G8C U26C A28G A57U U69A G73U, 0.29; as for G8A G52A U67A U74C A75U U80C, 0.19.
On to G8A U43A U49C A56U, for which the self-cleavage was 0.16.
As for G8A U43C A45G U67A U74G, the self-cleavage is 0.04.
As for G8A U51C A57C U69C, the figure is 0.06; as for G8A U25C A45U U76G, 0.07; as for G8A A28U A35G G63U U72A, 0.09.
As for G8A G9C U26C U43G U69C U76C U78C, the figure is 0.05; as for G8C G9A A21G A28G C68G, 0.04; as for G8A C40A U67C C71A, 0.05.
Take G8A A57G U60A C68G: the self-cleavage was 0.03.
As for G8A U31A A64U U69A, the figure is 0.15.
As for G8U A15G U72A, the figure is 0.05.
With G8A U25C U49C U72C the figure was 0.2; with G8A U41C U60A A77G, 0.2.
As to G8U A18C A20G U25C U41C A77G, the self-cleavage came out at 0.05.
Take G8A A21U U54C U67C G73A U74C U78A: the self-cleavage came to 0.04.
Take G8A G16U U26C A28G: the self-cleavage was found to be 0.07.
As for G8A U26C A35G U48C U69C, the figure is 0.06; as for G8U A18G A21U U49C U54C A56U U69C, 0.17; as for G8C U31A A64U, 0.16.
For the variant G8A C17G U54C U60A, the self-cleavage was 0.08.
With G8U A13G U54A U58C the figure was 0.22.
With G8A C17U A21G U51A, the self-cleavage came to 0.05.
As for G8A A64G U80C, the figure is 0.06; as for G8A U26C U60C U66G, 0.04.
With G8A C14U A20G A35G, the self-cleavage was found to be 0.31.
As for G8A C11U G24A U26C U43C A64U, the figure is 0.04.

(Values after the RNAGym collection of RNA variant scans (doi:10.1093/nar/gkz1192).)
